Laboratory results from PubChem BioAssay (NCATS).
Inconclusive means that the source gave no clear call. Such entries were picked first, then a sample of the others. Potencies of inconclusive entries are doubtful fits and often do not repeat. Activity calls are given as the source filed them. The call rests on the fitted dose curve; in most records, active means well fitted activation curve with a large enough effect in the signal ratio, with a control signal flat (not every such curve was filed as active); inconclusive means small, poorly fitted or top-dose-only effect, or effect the other way, or a change in a side signal; inactive means flat fitted curve, though single readings scatter; the % refers to the signal ratio.

Experiment: qHTS Assay for Identification of Small Molecule Agonists for Hypoxia Response Element Signaling Pathway (AID 914); on activation: top concentration of the series differs between compounds; % of control where 0% means no effect
Settings: ME-180 (cervical carcinoma) HRE-bla reporter, beta-lactamase ratio, CoCl2, 17 h; activation: hits give high values
Method in brief: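 Reporter activity (beta-lactamase, CCF4 460nm/530nm ratio) in HRE-bla ME-180 cells is recorded after 17 h compound exposure with EC50 CoCl2 at 37 degrees Celsius. AC50 values come from titration data.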
Potency means the concentration at half of the fitted maximal effect; tags describe the fitted curve by direction and shape or compound fluorescence and quenching.

Potency, inconclusive:
NC(=O)C1CCN(CCC(=O)Nc2ccc(Br)cc2)CC1 10 µM [activator, single point]
S=C(N=Nc1ccccc1)NNc1ccccc1 10 µM [inhibitor, partial curve]
Cc1ccc(C(C)C)c(OCCNc2nc3c(c(=O)n(C)c(=O)n3C)n2C)c1 3.16 µM [inhibitor, partial curve]
Cc1cc(/C=N/n2cnnc2)c(C)n1-c1ccc2c(c1)OCO2 0.398 µM [inhibitor, full curve]
CN1C(=O)CC(N2CCN(c3ccc(Cl)c(Cl)c3)CC2)C1=O (stereo unspecified) 12.6 µM [inhibitor, single point]
CC[C@H](C)C(=O)O[C@@H]1C[C@H](C)C=C2C=C[C@H](C)[C@@H](CC[C@H]3C[C@@H](O)CC(=O)O3)[C@H]21 10 µM [inhibitor, partial curve, poor fit]
Cc1ccc2cc(CNC(C)C)c(=O)[nH]c2c1 3.16 µM [inhibitor, full curve]
CC(=O)[C@H]1[C@@H]2C(=O)N(c3cccc(Cl)c3)C(=O)[C@@H]2[C@H]2c3ccccc3C=CN21 12.6 µM [inhibitor, partial curve]
C=CCNc1nc(-c2cccc(OC)c2O)nc2ccccc12 0.631 µM [inhibitor, full curve, poor fit]
O=C(NCc1ccccc1)C1C(=O)N(Cc2ccccc2)C(=O)C1C1(O)CCCC1 (stereo unspecified) 1.26 µM [inhibitor, partial curve]

activation, inactive:
C[C@@]12CC(=O)[C@@H]3[C@@H](CCC4=CC(=O)CC[C@]43C)[C@@H]1CC=C2CC(=O)O -1.62%
O=C(NC1CCCCC1)Nn1c(-c2ccccc2)nc2ccccc2c1=O 1.48%
O=C(NCc1cccnc1)c1ccc(=O)oc1 10.6%
CCOc1ccc(/C(O)=C2/C(=O)C(=O)N(CCN(CC)CC)C2c2ccco2)cc1 (stereo unspecified) -14.8%
CCC(=O)N(Cc1cccs1)C1CCOC(C)(C)C1 (stereo unspecified) -1.46%
CC1=N[C@@](C)(COC(=O)[C@]2(C)N[C@](C)(CO)CO2)COC1=O 5.98%
COc1cccc(Cn2c(Oc3ccccc3)nc3c2c(=O)n(C)c(=O)n3C)c1 -17.4%
O=C1CSC(=Nc2ccc(O)cc2)N1c1ccc(O)cc1 -9.31%
C[C@@]12C=CC(=O)C=C1CC[C@H]1[C@H]3CC[C@](O)(C(=O)CO)[C@]3(C)CC(=O)[C@@H]12 -13.5%
CC(C)OC(=O)C(CC(=O)O)NCc1ccccc1 (stereo unspecified) 19.8%
Cc1cc(=O)oc(C)c1C(=O)Nc1cccc2nonc12 1.4%
Cc1noc(C)c1-c1cncnc1NCc1ccccc1 4.46%
CCOc1ccc(C2C(C#N)=C(N)SC(N)=C2C#N)cc1OC -15.3%
CCOC(=O)CSc1nnc(C)c(=O)[nH]1 -0.909%
COc1ccc(/C=C(\C#N)C(N)=O)c(OC)c1 -21.9%
Cc1cc(C)n(C(=O)CN2C(=O)CCC2=O)n1 6.68%

activation, inconclusive:
NNC(=O)CS(=O)(=O)Nc1ncccn1 -6.88%
N#CC12CCCCC1CC1CCCCC1(C#N)N2Cc1ccccn1 (stereo unspecified) 8.21%
c1nc(NCCN2CCOCC2)c2cc(-c3ccc4c(c3)OCO4)ccc2n1 -17.4%
Cc1cc2c(c(=O)o1)C(CC(C)C)C(C#N)=C(N)O2 (stereo unspecified) 6.78%
Cc1cc(C)c(-c2cc([C@H](C)O/N=C\[C@@H](C)[C@H](OCc3ccccc3)C(C)C)on2)c(C)c1 8.01%
CCOc1nc(Oc2cccc(C(=O)O)c2)nc(Oc2cccc(C(=O)O)c2)n1 -40.4%
Cn1c(=O)n2n(c1=O)[C@H]1[C@H](O)[C@H]3O[C@@H]3/C(=N/OCc3ccccc3)[C@@H]1CC2 0.781%
COc1cccc(/C=C2/CN(C)CC3=C2OC(N)=C(C#N)C3c2cccc(OC)c2)c1 (stereo unspecified) -35.7%
CC(=O)Nc1ccc(S(=O)(=O)N=S(C)C)cc1 -5.09%
O=c1ccc(-c2ccccc2)n[nH]1 12.8%
